Measured values taken from patent publication US20200347136A1, “CONSTRAINED CYCLIC PEPTIDES AS INHIBITORS OF THE CD2:CD58 PROTEIN-PROTEIN INTERACTION FOR TREATMENT OF DISEASES AND AUTOIMMUNE DISORDERS” (Board of Supervisors for the University of Louisiana System, priority 2019, published 2020).

System: A549 Red-FLuc lung tumors
Test: experimental metastasis model of lung cancer, A549 Red-FLuc cells
Details: 6 mg/kg i.v. twice a week, vs vehicle

## CC[C@H](C)[C@@H]1NC(=O)[C@H](CCCNC(=N)N)NC(=O)C[C@@H](c2cccc3ccccc23)NC(=O)[C@@H]2CSSC[C@H](NC(=O)C[C@@H](c3cccc4ccccc34)NC(=O)[C@H](CCCNC(=N)N)NC(=O)[C@@H]3CCCN3C(=O)[C@@H]3CCCN3C1=O)C(=O)N[C@@H](Cc1ccccc1)C(=O)N1CCC[C@H]1C(=O)N[C@@H](CC(=O)O)C(=O)N[C@@H](CC(=O)O)C(=O)N[C@@H](Cc1ccccc1)C(=O)N2 [SFTI-G5, Cyclo(C(S-X)RIPPR(S-X)CFPDDF)]
  rate of tumor growth, total flux (p/s): tumor growth was reduced compared to the control group
